Data as given in article PMC4049591.
These are yes or no findings as the source states them, for the method shown. In cells and extracts the contact can be indirect. Some results given as binding are weak or reduced against the parent protein; the word gives no strength. For some assays here: Sequences can lack the tags named with a protein.

Chains of the proteins cited; added tags and fusions are not shown. Residues count along the entry.
UniProt P30101, residues 25-505: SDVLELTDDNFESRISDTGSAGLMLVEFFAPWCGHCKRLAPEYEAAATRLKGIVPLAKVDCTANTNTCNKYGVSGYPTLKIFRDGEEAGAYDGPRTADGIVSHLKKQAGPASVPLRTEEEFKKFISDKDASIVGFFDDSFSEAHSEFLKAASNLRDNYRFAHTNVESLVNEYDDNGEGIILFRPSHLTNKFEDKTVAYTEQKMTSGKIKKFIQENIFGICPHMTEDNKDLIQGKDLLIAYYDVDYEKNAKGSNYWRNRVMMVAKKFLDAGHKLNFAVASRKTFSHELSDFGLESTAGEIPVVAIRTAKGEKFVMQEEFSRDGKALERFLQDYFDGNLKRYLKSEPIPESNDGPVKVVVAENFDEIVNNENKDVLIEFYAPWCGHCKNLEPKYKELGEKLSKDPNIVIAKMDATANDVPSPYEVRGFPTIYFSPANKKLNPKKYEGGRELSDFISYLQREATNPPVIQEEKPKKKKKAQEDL

T1: Myc-tagged wild type EDEM1 (human) (UniProt Q92611)
T1 sequence: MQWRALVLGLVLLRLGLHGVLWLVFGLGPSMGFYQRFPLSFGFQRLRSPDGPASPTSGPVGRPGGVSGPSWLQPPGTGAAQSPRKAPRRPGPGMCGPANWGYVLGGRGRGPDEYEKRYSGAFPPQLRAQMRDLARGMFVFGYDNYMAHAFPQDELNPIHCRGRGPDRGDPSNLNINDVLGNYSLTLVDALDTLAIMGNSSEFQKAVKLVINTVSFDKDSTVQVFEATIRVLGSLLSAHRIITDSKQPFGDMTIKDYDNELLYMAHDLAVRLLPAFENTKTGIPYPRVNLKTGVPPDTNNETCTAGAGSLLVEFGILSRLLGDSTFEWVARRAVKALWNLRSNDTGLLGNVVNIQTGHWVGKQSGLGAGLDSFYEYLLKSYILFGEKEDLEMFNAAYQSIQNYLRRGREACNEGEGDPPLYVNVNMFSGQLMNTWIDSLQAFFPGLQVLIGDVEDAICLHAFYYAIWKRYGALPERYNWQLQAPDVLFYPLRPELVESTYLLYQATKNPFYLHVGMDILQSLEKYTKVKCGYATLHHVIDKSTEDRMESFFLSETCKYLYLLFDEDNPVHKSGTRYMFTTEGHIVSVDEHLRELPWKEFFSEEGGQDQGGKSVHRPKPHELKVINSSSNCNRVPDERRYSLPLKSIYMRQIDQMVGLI

T2: Myc-tagged wild type EDEM2 (human) (UniProt Q9BV94)
T2 sequence: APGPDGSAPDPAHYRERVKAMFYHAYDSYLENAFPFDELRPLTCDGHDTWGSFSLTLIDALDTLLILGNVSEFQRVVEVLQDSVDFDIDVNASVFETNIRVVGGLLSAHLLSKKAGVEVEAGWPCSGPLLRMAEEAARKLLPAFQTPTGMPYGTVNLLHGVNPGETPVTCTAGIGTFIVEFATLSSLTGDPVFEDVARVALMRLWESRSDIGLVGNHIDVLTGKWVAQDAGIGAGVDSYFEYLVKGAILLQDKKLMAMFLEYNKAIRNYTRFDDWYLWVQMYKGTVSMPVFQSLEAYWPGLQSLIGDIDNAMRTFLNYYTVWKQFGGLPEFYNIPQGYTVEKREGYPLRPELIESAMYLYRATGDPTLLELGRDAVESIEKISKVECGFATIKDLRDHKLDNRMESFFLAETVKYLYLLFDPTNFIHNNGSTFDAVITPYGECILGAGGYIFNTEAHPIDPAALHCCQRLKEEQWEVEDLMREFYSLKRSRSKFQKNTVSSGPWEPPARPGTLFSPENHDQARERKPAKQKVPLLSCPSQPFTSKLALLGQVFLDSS

T3: Myc-tagged wild type EDEM3 (human) (UniProt Q9BZQ6)
T3 sequence: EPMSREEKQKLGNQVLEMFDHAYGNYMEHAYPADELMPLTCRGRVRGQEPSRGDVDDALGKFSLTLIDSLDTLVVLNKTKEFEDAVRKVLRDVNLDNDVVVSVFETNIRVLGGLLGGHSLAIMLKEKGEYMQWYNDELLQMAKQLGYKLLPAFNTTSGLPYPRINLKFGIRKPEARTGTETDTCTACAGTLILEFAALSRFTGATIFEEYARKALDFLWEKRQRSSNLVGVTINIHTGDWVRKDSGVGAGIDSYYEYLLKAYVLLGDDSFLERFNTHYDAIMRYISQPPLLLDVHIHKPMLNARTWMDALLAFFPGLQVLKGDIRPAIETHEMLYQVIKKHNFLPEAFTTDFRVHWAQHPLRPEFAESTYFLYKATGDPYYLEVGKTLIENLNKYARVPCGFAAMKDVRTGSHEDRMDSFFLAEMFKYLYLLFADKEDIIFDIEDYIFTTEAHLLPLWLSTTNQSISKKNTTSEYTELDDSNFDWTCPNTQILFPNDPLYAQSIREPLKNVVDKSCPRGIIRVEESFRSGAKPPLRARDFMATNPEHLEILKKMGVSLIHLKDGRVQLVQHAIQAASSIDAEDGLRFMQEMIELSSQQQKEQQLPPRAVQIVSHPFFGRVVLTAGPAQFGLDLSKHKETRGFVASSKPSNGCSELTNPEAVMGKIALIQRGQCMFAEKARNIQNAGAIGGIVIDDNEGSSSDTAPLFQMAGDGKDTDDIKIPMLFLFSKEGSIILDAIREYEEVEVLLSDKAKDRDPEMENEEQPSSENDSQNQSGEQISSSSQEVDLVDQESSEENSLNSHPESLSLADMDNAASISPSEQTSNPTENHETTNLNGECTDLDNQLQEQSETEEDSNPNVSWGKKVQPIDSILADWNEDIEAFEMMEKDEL


Key:
[1] = biological target: T1, Myc-tagged wild type EDEM1 (human); test: co-IP; 293T cells transfected with Myc-tagged EDEMs (10% of the DNA normally used); lysed in buffer with 1% Triton; immunoprecipitated with Myc antibodies; blotted for endogenous SEL1L, HRD1, Bip, calnexin and ERp57
[2] = biological target: T2, Myc-tagged wild type EDEM2 (human); test: as above
[3] = biological target: T3, Myc-tagged wild type EDEM3 (human); test: as above
[4] = biological target: Full length human sonic hedgehog with HA tag (SHH-HA), glycosylated (human) (UniProt Q15465); test: co-IP; 293T cells stably expressing SHH-HA or N278A-HA, untreated or treated with castanospermine (CST, 0.2 mg/ml, 90 min); lysed in buffer with 1% digitonin; immunoprecipitated with HA antibodies; blotted for endogenous calnexin, calreticulin and ERp57
[5] = biological target: Non-glycosylated human sonic hedgehog mutant N278A with HA tag (N278A-HA) (human) (UniProt Q15465); test: as above
[6] = biological target: Non-glycosylated human sonic hedgehog mutant N278A with HA tag (N278A-HA) (human) (UniProt Q15465); test: co-IP; cells co-transfected with SHH-HA or N278A-HA and vector, wild type OS-9.2 or R188A-OS-9; lysed in buffer with 1% Triton; immunoprecipitated with HA antibodies; blotted with OS-9 antibodies

Row | binding [1] | binding [2] | binding [3] | binding [4] | binding [5] | binding [6] | Molecule
1 | no binding | no binding | no binding | no binding | no binding |  | ERp57 (from UniProt P30101 25-505)
2 |  |  |  | no binding | no binding |  | Calreticulin (from UniProt P27797 18-417)
3 |  |  |  |  |  | binds | Wild type OS-9.2 (protein, UniProt Q13438-2 26-612) GGVGSLNLEELSEMRYGIEILPLPVMGGQSQSSDVVIVSSKYKQRYECRLPAGAIHFQREREEETPAYQGPGIPELLSPMRDAPCLLKTKDWWTYEFCYGRHIQQYHMEDSEIKGEVLYLGYYQSAFDWDDETAKASKQHRLKRYHSQTYGNGSKCDLNGRPREAEVRFLCDEGAGISGDYIDRVDEPLSCSYVLTIRTPRLCPHPLLRPPPSAAPQAILCHPSLQPEEYMAYVQRQADSKQYGDKIIEELQDLGPQVWSETKSGVAPQKMAGASPTKDDSKDSDFWKMLNEPEDQAPGGEEVPAEEQDPSPEAADSASGAPNDFQNNVQVKVIRSPADLIRFIEELKGGTKKGKPNIGQEQPVDDAAEVPQREPEKERGDPERQREMEEEEDEDEDEDEDEDERQLLGEFEKELEGILLPSDRDRLRSEVKAGMERELENIIQETEKELDPDGLKKESERDRAMLALTSTLNKLIKRLEEKQSPELVKKHKKKRVVPKKPPPSPQPTGKIEIKIVRPWAEGTEEGARWLTDEDTRNLKEIFFNILVPGAEEAQKERQRQKELESNYRRVWGSPGGEGTGDLDEFDF
